For 8 molecules, binding results are on record in paper PMC13065467, “Assembly and phosphoregulatory mechanisms of the budding yeast outer kinetochore KMN complex” (The Journal of Cell Biology, 2026).

Results are given in words; binding and its absence hold for the method and conditions named. For some assays here: In cells and extracts the contact can be indirect. Some entries that bind do so weakly or less than the wild type.

The target of assay [1] is Knl1c:Mis12c^Mtw1c complex K^HB-RWDM (Knl1^Spc105_HB-RWD, ZWINT^Kre28, Dsn1, Mis12^Mtw1, Nnf1, Nsl1) (S. cerevisiae) (UniProt P53148+Q04431+P40568+P39731+P47149+Q12143). Kind of assay: ITC; peptide titrated into the complex in the cell; 20°C; 25 mM HEPES pH 7.5, 100 mM NaCl, 0.5 mM TCEP; both purified. (Isothermal titration calorimetry measures the heat released or taken up as one component is titrated into another.)

Assay [2] addresses T1, K^RWD: Knl1c composed of Knl1^Spc105_RWD (residues 710–917) and ZWINT^Kre28_RWD (residues 268–385) (S. cerevisiae) (UniProt P53148+Q04431).
T1 sequence 1: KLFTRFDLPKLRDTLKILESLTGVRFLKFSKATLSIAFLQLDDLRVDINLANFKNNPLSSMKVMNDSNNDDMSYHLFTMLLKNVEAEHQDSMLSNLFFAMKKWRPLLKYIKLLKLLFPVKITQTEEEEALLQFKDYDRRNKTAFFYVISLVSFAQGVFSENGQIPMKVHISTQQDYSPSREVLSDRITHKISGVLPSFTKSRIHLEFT
T1 sequence 2: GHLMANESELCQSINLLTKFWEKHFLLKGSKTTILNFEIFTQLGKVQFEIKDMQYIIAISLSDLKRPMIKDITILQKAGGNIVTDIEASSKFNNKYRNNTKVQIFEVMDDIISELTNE
Nature of the assay: pull-down; K^RWD (ZWINT^Kre28_RWD with C-terminal Twin-Strep tag as bait) coexpressed with Mis12c^Mtw1c (Dsn1^Δ1–278) in High-5 cells; cleared lysate on Strep-Tactin resin, 50 mM HEPES pH 8.0, 200 mM NaCl, 5% glycerol, 4°C; eluted with d-desthiobiotin; SDS-PAGE.

The target in assay [3] is T2, Nsl1 (subunit of Mis12c^Mtw1c, as in K^HB-RWDM) (S. cerevisiae) (UniProt Q12143).
T2 sequence: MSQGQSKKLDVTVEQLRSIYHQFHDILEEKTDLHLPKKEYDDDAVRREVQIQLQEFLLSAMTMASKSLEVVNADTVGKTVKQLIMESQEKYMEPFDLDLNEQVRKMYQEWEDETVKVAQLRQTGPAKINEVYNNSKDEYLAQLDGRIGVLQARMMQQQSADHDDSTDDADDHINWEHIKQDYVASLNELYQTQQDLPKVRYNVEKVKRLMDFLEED
Kind of assay: cross-linking; sulfo-SDA (2 mM), 365-nm UV for 10 s, on the K^HB-RWDM complex (0.5 mg/ml); mass spectrometry (CL-MS); both purified.

Assay [4] addresses Head 1–deleted Knl1c:Mis12c^Mtw1c complex K^HB-RWDM^Dsn1Δ257_Δhead1 (Knl1^Spc105 1–444, Dsn1 1–257, Mis12^Mtw1 1–106 and Nnf1 1–104 deleted) (S. cerevisiae) (UniProt P53148+Q04431+P40568+P39731+P47149+Q12143). Kind of assay: ITC; peptide titrated into the complex in the cell; 25°C; 25 mM HEPES pH 7.5, 100 mM NaCl, 1 mM TCEP; single-site model; both purified.
Assay [5] deals with T3, Dsn1 (subunit of Mis12c^Mtw1c, as in K^HB-RWDM) (S. cerevisiae) (UniProt P40568).
T3 sequence: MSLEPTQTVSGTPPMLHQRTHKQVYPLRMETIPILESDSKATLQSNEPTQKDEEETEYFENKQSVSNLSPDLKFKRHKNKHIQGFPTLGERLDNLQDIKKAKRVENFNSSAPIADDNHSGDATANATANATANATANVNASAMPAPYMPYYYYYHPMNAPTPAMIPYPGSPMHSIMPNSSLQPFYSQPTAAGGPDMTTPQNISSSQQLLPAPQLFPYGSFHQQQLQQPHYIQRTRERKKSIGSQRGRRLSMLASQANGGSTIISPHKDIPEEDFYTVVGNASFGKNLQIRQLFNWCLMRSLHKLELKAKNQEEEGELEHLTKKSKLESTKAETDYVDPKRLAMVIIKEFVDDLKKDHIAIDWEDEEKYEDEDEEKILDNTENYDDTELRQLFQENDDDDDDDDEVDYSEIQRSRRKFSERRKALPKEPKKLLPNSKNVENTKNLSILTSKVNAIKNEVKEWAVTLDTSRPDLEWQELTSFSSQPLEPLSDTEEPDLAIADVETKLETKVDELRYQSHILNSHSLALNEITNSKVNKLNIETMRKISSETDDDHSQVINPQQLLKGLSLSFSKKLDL
Nature of the assay: cross-linking; sulfo-SDA (2 mM), 365-nm UV for 10 s, on the K^HB-RWDM complex (0.5 mg/ml); mass spectrometry (CL-MS); both purified.

Regarding MDYMKLGLKSRKTGIDVKQDIPKDEYSMENIDDFFKDD (C-terminal amide) [CENP-C^Mif2_1–38 peptide (N-terminal 38 residues of CENP-C^Mif2)], the binding result in assay [1] is listed as “no binding”.

B1: Mis12c^Mtw1c_Mis12ΔC with Dsn1^Δ1–278 (Mis12^Mtw1_Δ272-C), coexpressed with K^RWD (complex, UniProt P40568 279-576; Q12143 1-216; P39731 1-271; P47149 1-201)
chain 1: GNASFGKNLQIRQLFNWCLMRSLHKLELKAKNQEEEGELEHLTKKSKLESTKAETDYVDPKRLAMVIIKEFVDDLKKDHIAIDWEDEEKYEDEDEEKILDNTENYDDTELRQLFQENDDDDDDDDEVDYSEIQRSRRKFSERRKALPKEPKKLLPNSKNVENTKNLSILTSKVNAIKNEVKEWAVTLDTSRPDLEWQELTSFSSQPLEPLSDTEEPDLAIADVETKLETKVDELRYQSHILNSHSLALNEITNSKVNKLNIETMRKISSETDDDHSQVINPQQLLKGLSLSFSKKLDL
chain 2: MSQGQSKKLDVTVEQLRSIYHQFHDILEEKTDLHLPKKEYDDDAVRREVQIQLQEFLLSAMTMASKSLEVVNADTVGKTVKQLIMESQEKYMEPFDLDLNEQVRKMYQEWEDETVKVAQLRQTGPAKINEVYNNSKDEYLAQLDGRIGVLQARMMQQQSADHDDSTDDADDHINWEHIKQDYVASLNELYQTQQDLPKVRYNVEKVKRLMDFLEED
chain 3: MSAPTMRSTSILTEHLGYPPISLVDDIINAVNEIMYKCTAAMEKYLLSKSKIGEEDYGEEIKSGVAKLESLLENSVDKNFDKLELYVLRNVLRIPEEYLDANVFRLENQKDLVIVDENELKKSEEKLREKVNDVELAFKKNEMLLKRVTKVKRLLFTIRGFKQKLNELLKCKDDVQLQKILESLKPIDDTMTLLTDSLRKLYVDSESTSSTEEVEALLQRLKTNGKQNNKDFRTRYIDIRTNNVLRKLGLLGDKEDEKQSAKPDARTQAGD
chain 4: MVNSHGIRYIRLKQVFNRALDQSISKLQSWDKVSSCFPQYVNSKQGAINVANCQRQLTEFWTELCQREFKEIMEERNVEQKLNELDELILEAKERYTDRDQDEVNKGPAIDELSSKELVECHLYSQRMHAIHEIDERLAKVNEMNDQLAQELKDLETQVEVEKNEIGKMYDEYLGSHTDQPANVLLVQSLNDMVLELKENY
In the case of B1, the binding result in assay [2] was “binds”.

B2: Dsn1 (subunit of Mis12c^Mtw1c, as in K^HB-RWDM) (protein, UniProt P40568 1-576)
chain: MSLEPTQTVSGTPPMLHQRTHKQVYPLRMETIPILESDSKATLQSNEPTQKDEEETEYFENKQSVSNLSPDLKFKRHKNKHIQGFPTLGERLDNLQDIKKAKRVENFNSSAPIADDNHSGDATANATANATANATANVNASAMPAPYMPYYYYYHPMNAPTPAMIPYPGSPMHSIMPNSSLQPFYSQPTAAGGPDMTTPQNISSSQQLLPAPQLFPYGSFHQQQLQQPHYIQRTRERKKSIGSQRGRRLSMLASQANGGSTIISPHKDIPEEDFYTVVGNASFGKNLQIRQLFNWCLMRSLHKLELKAKNQEEEGELEHLTKKSKLESTKAETDYVDPKRLAMVIIKEFVDDLKKDHIAIDWEDEEKYEDEDEEKILDNTENYDDTELRQLFQENDDDDDDDDEVDYSEIQRSRRKFSERRKALPKEPKKLLPNSKNVENTKNLSILTSKVNAIKNEVKEWAVTLDTSRPDLEWQELTSFSSQPLEPLSDTEEPDLAIADVETKLETKVDELRYQSHILNSHSLALNEITNSKVNKLNIETMRKISSETDDDHSQVINPQQLLKGLSLSFSKKLDL
Regarding B2, the binding entry in assay [3] is listed as “binds”.

For MDRDTKLAFRLRGSHSRRTDDIDDDVIVFKTPNW (C-terminal amide) [CENP-U^Ame1_1–33 peptide (residues 1–33 of CENP-U^Ame1)], the binding entry in assay [1] was “no binding (tested: 16 μM K^HB-RWDM, 400 μM CENP-U^Ame1_1–33)”.

PHYIQRTRERKKSIGSQRGRRLSMLASGSAW (N-terminal acetylation; C-terminal amidation) [Dsn1^228–254 peptide]: the binding entry in assay [4] is on record as “no binding”.

B3: Mis12^Mtw1 (subunit of Mis12c^Mtw1c, as in K^HB-RWDM) (protein, UniProt P39731 1-289)
chain: MSAPTMRSTSILTEHLGYPPISLVDDIINAVNEIMYKCTAAMEKYLLSKSKIGEEDYGEEIKSGVAKLESLLENSVDKNFDKLELYVLRNVLRIPEEYLDANVFRLENQKDLVIVDENELKKSEEKLREKVNDVELAFKKNEMLLKRVTKVKRLLFTIRGFKQKLNELLKCKDDVQLQKILESLKPIDDTMTLLTDSLRKLYVDSESTSSTEEVEALLQRLKTNGKQNNKDFRTRYIDIRTNNVLRKLGLLGDKEDEKQSAKPDARTQAGDIVSIDIEEPQLDLLDDVL
Turning to B3, in assay [5], the binding result was “binds”.

B4: Mis12c^Mtw1c_Nnf1ΔC with Dsn1^Δ1–278 (Nnf1^Δ180-C), coexpressed with K^RWD (complex, UniProt P40568 279-576; Q12143 1-216; P39731 1-289; P47149 1-179)
chain 1: GNASFGKNLQIRQLFNWCLMRSLHKLELKAKNQEEEGELEHLTKKSKLESTKAETDYVDPKRLAMVIIKEFVDDLKKDHIAIDWEDEEKYEDEDEEKILDNTENYDDTELRQLFQENDDDDDDDDEVDYSEIQRSRRKFSERRKALPKEPKKLLPNSKNVENTKNLSILTSKVNAIKNEVKEWAVTLDTSRPDLEWQELTSFSSQPLEPLSDTEEPDLAIADVETKLETKVDELRYQSHILNSHSLALNEITNSKVNKLNIETMRKISSETDDDHSQVINPQQLLKGLSLSFSKKLDL
chain 2: MSQGQSKKLDVTVEQLRSIYHQFHDILEEKTDLHLPKKEYDDDAVRREVQIQLQEFLLSAMTMASKSLEVVNADTVGKTVKQLIMESQEKYMEPFDLDLNEQVRKMYQEWEDETVKVAQLRQTGPAKINEVYNNSKDEYLAQLDGRIGVLQARMMQQQSADHDDSTDDADDHINWEHIKQDYVASLNELYQTQQDLPKVRYNVEKVKRLMDFLEED
chain 3: MSAPTMRSTSILTEHLGYPPISLVDDIINAVNEIMYKCTAAMEKYLLSKSKIGEEDYGEEIKSGVAKLESLLENSVDKNFDKLELYVLRNVLRIPEEYLDANVFRLENQKDLVIVDENELKKSEEKLREKVNDVELAFKKNEMLLKRVTKVKRLLFTIRGFKQKLNELLKCKDDVQLQKILESLKPIDDTMTLLTDSLRKLYVDSESTSSTEEVEALLQRLKTNGKQNNKDFRTRYIDIRTNNVLRKLGLLGDKEDEKQSAKPDARTQAGDIVSIDIEEPQLDLLDDVL
chain 4: MVNSHGIRYIRLKQVFNRALDQSISKLQSWDKVSSCFPQYVNSKQGAINVANCQRQLTEFWTELCQREFKEIMEERNVEQKLNELDELILEAKERYTDRDQDEVNKGPAIDELSSKELVECHLYSQRMHAIHEIDERLAKVNEMNDQLAQELKDLETQVEVEKNEIGKMYDEYLGSHTD
Regarding B4, in assay [2], the binding result is listed as “binds”.

B5: Mis12c^Mtw1c with Dsn1^Δ1–278 (wild-type Mis12^Mtw1 and Nnf1), coexpressed with K^RWD (complex, UniProt P40568 279-576; Q12143 1-216; P39731 1-289; P47149 1-201)
chain 1: GNASFGKNLQIRQLFNWCLMRSLHKLELKAKNQEEEGELEHLTKKSKLESTKAETDYVDPKRLAMVIIKEFVDDLKKDHIAIDWEDEEKYEDEDEEKILDNTENYDDTELRQLFQENDDDDDDDDEVDYSEIQRSRRKFSERRKALPKEPKKLLPNSKNVENTKNLSILTSKVNAIKNEVKEWAVTLDTSRPDLEWQELTSFSSQPLEPLSDTEEPDLAIADVETKLETKVDELRYQSHILNSHSLALNEITNSKVNKLNIETMRKISSETDDDHSQVINPQQLLKGLSLSFSKKLDL
chain 2: MSQGQSKKLDVTVEQLRSIYHQFHDILEEKTDLHLPKKEYDDDAVRREVQIQLQEFLLSAMTMASKSLEVVNADTVGKTVKQLIMESQEKYMEPFDLDLNEQVRKMYQEWEDETVKVAQLRQTGPAKINEVYNNSKDEYLAQLDGRIGVLQARMMQQQSADHDDSTDDADDHINWEHIKQDYVASLNELYQTQQDLPKVRYNVEKVKRLMDFLEED
chain 3: MSAPTMRSTSILTEHLGYPPISLVDDIINAVNEIMYKCTAAMEKYLLSKSKIGEEDYGEEIKSGVAKLESLLENSVDKNFDKLELYVLRNVLRIPEEYLDANVFRLENQKDLVIVDENELKKSEEKLREKVNDVELAFKKNEMLLKRVTKVKRLLFTIRGFKQKLNELLKCKDDVQLQKILESLKPIDDTMTLLTDSLRKLYVDSESTSSTEEVEALLQRLKTNGKQNNKDFRTRYIDIRTNNVLRKLGLLGDKEDEKQSAKPDARTQAGDIVSIDIEEPQLDLLDDVL
chain 4: MVNSHGIRYIRLKQVFNRALDQSISKLQSWDKVSSCFPQYVNSKQGAINVANCQRQLTEFWTELCQREFKEIMEERNVEQKLNELDELILEAKERYTDRDQDEVNKGPAIDELSSKELVECHLYSQRMHAIHEIDERLAKVNEMNDQLAQELKDLETQVEVEKNEIGKMYDEYLGSHTDQPANVLLVQSLNDMVLELKENY
For B5, in assay [2], the binding entry was “binds”.
